Results are given in words; binding and its absence hold for the method and conditions named. Binding seen in cells or lysates may run through a third protein. Some entries that bind do so weakly or less than the wild type.
Key:
HA-tagged DYNLL1 = HA-tagged DYNLL1 (UniProt P63167); test: co-IP; HEK293T co-transfected; IP with anti-HA antibodies, ProtA/G beads; lysis buffer 50 mM Tris-HCl pH 7.5, 150 mM NaCl, 1% Triton-X-100; 4°C overnight; immunoblot
[1] = target: full length HA-tagged NINL^isoB (human) (UniProt Q9Y2I6); test: as above
FLAG-tagged LRRK2 = FLAG-tagged LRRK2 (UniProt Q5S007); test: co-IP; HEK293T co-transfected; reciprocal IP with anti-FLAG antibodies; immunoblot
[2] = target: full-length Strep/FLAG-tagged DZANK1 (human) (UniProt Q9NVP4); test: as above
[3] = target: GST-fused NINL^isoB_538-825aa (human) (UniProt Q9Y2I6); test: pull-down; GST fusion as bait; Strep/FLAG-tagged DZANK1 from HEK293T cell lysate; immunoblot; only the target purified

Chains of the proteins cited; added tags and fusions are not shown. Lines headed by an entry give the natural chain unless they say otherwise; changes in a name come on top. A line that says so, or that is headed by a name, gives the form on record, which may keep a tag or linker.
UniProt P63167: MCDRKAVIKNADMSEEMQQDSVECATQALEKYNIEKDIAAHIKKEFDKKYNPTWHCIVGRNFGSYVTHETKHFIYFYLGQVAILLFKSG
full length HA-tagged NINL^isoB (Q9Y2I6-2, form named): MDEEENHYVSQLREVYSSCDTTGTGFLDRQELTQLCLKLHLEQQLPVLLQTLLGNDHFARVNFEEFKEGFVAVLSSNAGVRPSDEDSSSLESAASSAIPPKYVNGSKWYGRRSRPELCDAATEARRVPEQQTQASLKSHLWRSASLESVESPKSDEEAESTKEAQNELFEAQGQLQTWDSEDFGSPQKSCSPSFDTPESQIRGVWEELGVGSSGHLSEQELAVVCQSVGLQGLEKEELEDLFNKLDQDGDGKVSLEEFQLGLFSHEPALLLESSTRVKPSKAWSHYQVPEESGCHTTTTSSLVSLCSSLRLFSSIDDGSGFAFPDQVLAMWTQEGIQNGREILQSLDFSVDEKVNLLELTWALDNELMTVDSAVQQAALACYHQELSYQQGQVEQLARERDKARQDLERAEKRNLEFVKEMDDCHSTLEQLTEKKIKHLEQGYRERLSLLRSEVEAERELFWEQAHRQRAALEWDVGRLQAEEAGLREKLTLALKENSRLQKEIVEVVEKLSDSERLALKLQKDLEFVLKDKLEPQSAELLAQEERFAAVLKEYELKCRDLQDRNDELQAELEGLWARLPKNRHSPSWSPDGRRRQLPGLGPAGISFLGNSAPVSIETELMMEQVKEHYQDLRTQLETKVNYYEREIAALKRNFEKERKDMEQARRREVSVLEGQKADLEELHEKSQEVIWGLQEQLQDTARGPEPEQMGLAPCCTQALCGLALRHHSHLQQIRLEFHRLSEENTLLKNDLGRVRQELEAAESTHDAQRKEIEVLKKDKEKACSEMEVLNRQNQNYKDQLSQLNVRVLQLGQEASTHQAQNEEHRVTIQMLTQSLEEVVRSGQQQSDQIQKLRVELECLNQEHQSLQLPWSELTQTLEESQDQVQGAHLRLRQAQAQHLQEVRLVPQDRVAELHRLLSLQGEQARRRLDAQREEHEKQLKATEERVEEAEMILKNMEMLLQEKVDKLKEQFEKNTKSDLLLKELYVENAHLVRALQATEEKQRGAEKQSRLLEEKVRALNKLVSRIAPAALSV
GST-fused NINL^isoB_538-825aa (Q9Y2I6-2, form named): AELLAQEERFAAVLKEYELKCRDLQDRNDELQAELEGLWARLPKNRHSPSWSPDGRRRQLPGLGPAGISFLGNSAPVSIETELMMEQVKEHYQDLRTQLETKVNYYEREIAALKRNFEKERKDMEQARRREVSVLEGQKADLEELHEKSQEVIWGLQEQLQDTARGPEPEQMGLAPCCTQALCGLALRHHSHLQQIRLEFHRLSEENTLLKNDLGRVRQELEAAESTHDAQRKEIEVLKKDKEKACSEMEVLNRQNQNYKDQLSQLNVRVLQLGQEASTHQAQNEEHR
UniProt Q5S007: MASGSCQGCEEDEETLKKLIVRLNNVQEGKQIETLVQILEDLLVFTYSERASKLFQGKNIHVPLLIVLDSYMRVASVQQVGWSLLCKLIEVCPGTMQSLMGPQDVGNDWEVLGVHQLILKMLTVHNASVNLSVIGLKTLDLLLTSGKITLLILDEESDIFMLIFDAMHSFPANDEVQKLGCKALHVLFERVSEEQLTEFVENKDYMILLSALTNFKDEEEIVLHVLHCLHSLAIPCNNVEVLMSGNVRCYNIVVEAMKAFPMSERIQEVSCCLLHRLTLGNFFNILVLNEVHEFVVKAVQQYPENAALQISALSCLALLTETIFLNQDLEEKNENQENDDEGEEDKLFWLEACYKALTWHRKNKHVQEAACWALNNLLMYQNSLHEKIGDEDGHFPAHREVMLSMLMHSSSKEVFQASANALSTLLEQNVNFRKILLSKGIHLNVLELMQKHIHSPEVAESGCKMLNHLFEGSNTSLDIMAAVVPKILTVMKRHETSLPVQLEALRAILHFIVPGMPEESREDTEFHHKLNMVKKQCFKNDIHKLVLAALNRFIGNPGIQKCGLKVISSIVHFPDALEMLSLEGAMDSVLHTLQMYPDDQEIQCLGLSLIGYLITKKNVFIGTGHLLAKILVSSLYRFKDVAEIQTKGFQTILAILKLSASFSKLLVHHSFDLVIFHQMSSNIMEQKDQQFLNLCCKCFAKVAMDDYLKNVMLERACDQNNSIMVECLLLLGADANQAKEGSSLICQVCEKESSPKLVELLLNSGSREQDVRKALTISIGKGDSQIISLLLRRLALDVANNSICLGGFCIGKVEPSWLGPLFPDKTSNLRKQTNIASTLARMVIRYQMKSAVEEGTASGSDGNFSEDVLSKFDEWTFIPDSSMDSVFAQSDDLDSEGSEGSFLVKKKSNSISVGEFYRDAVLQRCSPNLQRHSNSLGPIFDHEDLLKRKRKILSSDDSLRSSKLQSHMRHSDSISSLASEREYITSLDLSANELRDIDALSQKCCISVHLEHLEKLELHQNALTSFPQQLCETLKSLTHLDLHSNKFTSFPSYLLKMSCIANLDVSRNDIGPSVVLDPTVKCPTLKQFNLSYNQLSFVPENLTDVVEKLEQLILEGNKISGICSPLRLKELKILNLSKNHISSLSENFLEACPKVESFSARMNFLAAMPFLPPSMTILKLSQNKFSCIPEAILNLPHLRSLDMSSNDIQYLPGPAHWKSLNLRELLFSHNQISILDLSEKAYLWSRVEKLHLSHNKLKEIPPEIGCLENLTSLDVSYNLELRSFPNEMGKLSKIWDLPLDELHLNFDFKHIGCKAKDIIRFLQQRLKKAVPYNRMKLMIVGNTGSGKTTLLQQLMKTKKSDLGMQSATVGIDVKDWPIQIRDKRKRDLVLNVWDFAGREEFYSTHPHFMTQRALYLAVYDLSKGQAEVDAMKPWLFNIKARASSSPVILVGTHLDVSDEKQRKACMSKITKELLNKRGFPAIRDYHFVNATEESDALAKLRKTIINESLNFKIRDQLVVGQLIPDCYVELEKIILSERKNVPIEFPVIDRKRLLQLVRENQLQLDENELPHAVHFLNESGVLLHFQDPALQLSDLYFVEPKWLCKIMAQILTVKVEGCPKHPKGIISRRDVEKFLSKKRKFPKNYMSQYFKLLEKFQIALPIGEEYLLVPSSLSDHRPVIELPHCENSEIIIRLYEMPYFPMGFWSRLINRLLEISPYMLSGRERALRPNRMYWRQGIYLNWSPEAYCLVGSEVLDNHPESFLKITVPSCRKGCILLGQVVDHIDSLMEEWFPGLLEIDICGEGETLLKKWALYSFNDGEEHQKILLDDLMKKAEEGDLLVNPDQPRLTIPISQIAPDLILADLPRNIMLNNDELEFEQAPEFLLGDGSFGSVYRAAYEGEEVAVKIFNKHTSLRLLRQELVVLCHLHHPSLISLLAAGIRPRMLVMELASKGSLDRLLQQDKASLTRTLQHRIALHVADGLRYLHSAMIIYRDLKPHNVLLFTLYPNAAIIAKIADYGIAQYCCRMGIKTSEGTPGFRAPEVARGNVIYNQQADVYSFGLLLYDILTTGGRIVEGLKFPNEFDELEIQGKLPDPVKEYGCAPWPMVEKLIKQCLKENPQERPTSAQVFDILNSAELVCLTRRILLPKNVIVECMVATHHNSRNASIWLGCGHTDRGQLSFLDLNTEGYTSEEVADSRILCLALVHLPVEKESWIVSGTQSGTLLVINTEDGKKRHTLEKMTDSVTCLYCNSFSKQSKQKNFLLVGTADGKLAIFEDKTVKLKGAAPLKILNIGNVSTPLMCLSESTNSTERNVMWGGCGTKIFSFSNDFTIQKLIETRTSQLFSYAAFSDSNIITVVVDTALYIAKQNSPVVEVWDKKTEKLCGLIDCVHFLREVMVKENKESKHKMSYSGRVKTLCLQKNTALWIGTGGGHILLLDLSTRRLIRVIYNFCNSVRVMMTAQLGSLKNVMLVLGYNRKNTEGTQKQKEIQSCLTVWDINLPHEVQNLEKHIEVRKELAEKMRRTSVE
UniProt Q9NVP4: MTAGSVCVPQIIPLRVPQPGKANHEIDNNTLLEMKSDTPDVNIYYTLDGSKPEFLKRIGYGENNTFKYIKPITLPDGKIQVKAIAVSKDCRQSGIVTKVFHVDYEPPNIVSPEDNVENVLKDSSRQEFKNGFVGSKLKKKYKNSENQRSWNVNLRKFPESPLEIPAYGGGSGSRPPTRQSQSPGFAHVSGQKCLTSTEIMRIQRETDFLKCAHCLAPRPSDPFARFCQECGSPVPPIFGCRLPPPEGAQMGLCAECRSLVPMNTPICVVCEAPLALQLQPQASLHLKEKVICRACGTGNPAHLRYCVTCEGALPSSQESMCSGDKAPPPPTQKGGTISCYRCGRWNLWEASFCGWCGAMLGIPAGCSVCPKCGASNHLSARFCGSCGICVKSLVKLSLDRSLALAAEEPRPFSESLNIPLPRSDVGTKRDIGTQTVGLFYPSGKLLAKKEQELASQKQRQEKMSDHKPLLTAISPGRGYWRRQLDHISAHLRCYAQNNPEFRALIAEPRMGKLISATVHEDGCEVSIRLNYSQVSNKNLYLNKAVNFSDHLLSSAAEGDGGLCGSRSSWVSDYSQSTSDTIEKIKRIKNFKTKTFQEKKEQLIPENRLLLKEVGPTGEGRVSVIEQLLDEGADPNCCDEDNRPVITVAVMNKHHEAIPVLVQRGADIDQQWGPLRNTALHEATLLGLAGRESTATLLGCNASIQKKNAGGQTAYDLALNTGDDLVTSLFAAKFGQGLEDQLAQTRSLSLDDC

Substance	binding (HA-tagged DYNLL1)	binding [1]	binding (FLAG-tagged LRRK2)	binding [2]	binding [3]
FLAG-tagged LRRK2 (from UniProt Q5S007 1-2527)	no binding	no binding	–	–	–
HA-tagged DYNLL1 (from UniProt P63167 1-89)	–	–	no binding	–	–
full length HA-tagged NINL^isoB (from UniProt Q9Y2I6-2 1-1033)	–	–	no binding	binds	–
full-length Strep/FLAG-tagged DZANK1 (from UniProt Q9NVP4 1-752)	–	binds	–	–	binds

Reference: paper PMC4617706
